For the experiment, the target named is Her2 (UniProt P04626). Briefly: FACS binding to SKOV3 cells. (In general: In flow cytometry, cells or beads pass a laser one at a time.)

B1: a-Her2 (1A68) VHH-hIgG1-Fc (Fc fusion)
chain: QVQLQQFGGGLVKTGDSLRLSCAASGRSFRSYAMGWFRQNPGKERRFVAGVSWSGDITSYADSVKGRFIISRDNDKSTVYLQMHSLKAEDTAIYYCGARLGGAISEVADPYDYWGQGTLVTVSS[letters of human IgG1 Fc not shown]
Turning to B1, the Kd (as a rule, a measure of binding affinity in units of concentration) stood at 42 nM. In other words, the double-digit nanomolar range.

B2: a-Her2 (1A12) VHH-hIgG1-Fc (Fc fusion)
chain: QVQLQESGGGLVQAGGSLRLSCAASGRTISNAFMGWYHQAPGEQREFVATISTTGTTNYRNSVKGRFTISRDNAKNTVYLQMNNLKPEDMGTYYCRHFGYDVWGQGTQVTVSS[letters of human IgG1 Fc not shown]
Regarding B2, the equilibrium dissociation constant (Kd) was 8 nM.

B3: a-Her2 (1A51) VHH-hIgG1-Fc (Fc fusion)
chain: QVQLQESGGGLVQAGGSLRLSCAGSGRTFSLYSMGWFRQSAGKAREFVASINWNGEVTEYADSVKGRFIISKANANKTMSLQMNSLKFEDTGVYYCAAAPRFESTWLADYWGQGTQVTVSS[letters of human IgG1 Fc not shown]
Molecule B3 yielded a Kd of 1 nM.

B4: a-Her2 (1A11) VHH-hIgG1-Fc (Fc fusion)
chain: QVQLQESGGGLVQAGGSLKLSCAASGRAFIDNVMGWFRRAPGKEREFVAGLSRTGANTMYQDSVKGRFTISRDDAKNTLYLQMNSLKPEDTAVYYCAARSQGATVVITTTGGYDYWGQGTQVTVSS[letters of human IgG1 Fc not shown]
B4: the Kd stood at 1 nM.

B5: a-Her2 (1A100) VHH-hIgG1-Fc (Fc fusion)
chain: QVQLQESGGGLVQAGDSLKLSCAASGDTFSRYAMAWFRQAPGKEREFVAAVSWSGGITHYADSLKGRFTISRDSAKNTVYLQMNSLKPDDTAIYYCTQDTIPGGAAREFRGYWGQGTQVTVSS[letters of human IgG1 Fc not shown]
For the molecule B5, the dissociation constant (Kd) worked out at 2 nM. Compared with the last molecule, the Kd is about 2-fold higher.

For the origin of these results see patent US20250051755A1 (published 2025).
